Data: PubChem BioAssay AID2675 (National Center for Advancing Translational Sciences (NCATS), 2010)
The whole screen tested about 280,000 compounds, of which about 100 (0.036%) were called active. This list was built around the results that the source calls inconclusive (neither active nor inactive); the mix of calls is not that of the screen. The call rests on the fitted dose curve; in most records, active means well fitted inhibition curve with a large enough effect in the signal ratio, with a control signal flat (not every such curve was filed as active); inconclusive means small, poorly fitted or top-dose-only effect, or effect the other way, or a change in a side signal; inactive means no such curve, though single readings can be large or run the other way; the % refers to the signal ratio. A potency beside an inconclusive call is a rough fit, not a confirmed value. A note “side channel” means that the fit belongs to a control or component signal, not to the main read-out.

biological target: Muscleblind-like protein 1 (Homo sapiens) (UniProt Q9NR56); experiment: qHTS Assay for Inhibitors of MBNL1-poly(CUG) RNA binding; settings: TR-FRET MBNL1-His/biotin-(CUG)12 binding, 665/545 ratio; activity change, negative = inhibition: at 57.5 µM (top of the series)
UniProt Q9NR56, sequence (Q9NR56 whole entry, looked up): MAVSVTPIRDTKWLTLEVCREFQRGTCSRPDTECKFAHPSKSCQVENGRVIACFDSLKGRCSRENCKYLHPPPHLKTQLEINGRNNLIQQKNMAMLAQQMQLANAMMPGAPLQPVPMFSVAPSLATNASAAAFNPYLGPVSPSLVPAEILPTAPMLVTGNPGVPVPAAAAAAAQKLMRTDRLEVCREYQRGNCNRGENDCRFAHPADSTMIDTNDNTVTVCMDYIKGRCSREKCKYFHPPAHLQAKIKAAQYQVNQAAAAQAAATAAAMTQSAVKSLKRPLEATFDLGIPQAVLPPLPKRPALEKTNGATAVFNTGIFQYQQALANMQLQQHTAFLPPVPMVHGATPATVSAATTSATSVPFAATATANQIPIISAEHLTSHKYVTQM
Method in brief: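 TR-FRET readout: Ex 340 nm, 665/545 nm emission ratio, normalized to buffer-only (basal) and MBNL1-(CUG)12 controls. Complex of MBNL1-His with Biotin-(CUG)12, compounds 92 nM–58 uM, incubated 60 min at room temperature.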
On the % scale 0 is the no-effect control and ±100 the full control effect; potency means the concentration at half of the fitted maximal effect; tags describe the fitted curve by direction and shape or compound fluorescence and quenching.

Compound	Potency	activity change, negative = inhibition
Cc1nc(SCCO)c2oc3ccccc3c2n1	inconclusive: 39.8 µM [fluorescent, single point]	–
CCOC(=O)C1CCN(C(=O)C2CCN(C(=O)c3ccc([N+](=O)[O-])cc3)CC2)CC1	inconclusive: 7.94 µM [quencher, side channel, partial curve]	–
Cc1cc(=O)[nH]c(N=N/C(=N/Nc2ccc(O)cc2)c2ccccc2)n1	inconclusive: 6.31 µM [quencher, side channel, partial curve]	–
COc1cc(NC(=O)c2cnn3c(C)cc(C)nc23)c(OC)cc1Cl	inconclusive: 39.8 µM [quencher, side channel, single point]	–
CCOc1ccc(Nc2ccc([N+](=O)[O-])c3nonc23)cc1	inconclusive: 7.08 µM [quencher, side channel, partial curve]	–
Cc1nc2nc[nH]n2c(=O)c1NS(=O)(=O)c1ccc([N+](=O)[O-])cc1	inconclusive: 14.1 µM [quencher, side channel, partial curve]	–
COn1c(C)c(C(C)=O)c2c3nonc3ccc21	inconclusive: 17.8 µM [quencher, side channel, partial curve]	–
CCOC(=O)c1cc2c(=O)n3ccccc3nc2n(Cc2ccco2)c1=NC(=O)c1ccccc1OC	inconclusive: 7.94 µM [quencher, side channel, partial curve]	–
O=C(Nc1ccccc1)Nc1ccc(Cl)c([N+](=O)[O-])c1	inconclusive: 0.126 µM [quencher, side channel, full curve, poor fit]	–
CCOc1ccc(NC(=S)N2CCCN(Cc3cccc(Cl)c3)C2)cc1	–	inactive: -7.02%
CCS(=O)(=O)c1ccc(O)c(NC(=O)/C=C/c2ccc(Cl)cc2)c1	inconclusive: 14.1 µM [quencher, side channel, partial curve]	–
CC(=O)OC1CSc2nc3ccccc3n2C1 (stereo not given)	inconclusive: 3.55 µM [quencher, side channel, single point]	–
CCOC(=O)c1sc2nc3c(SCC(=O)O)cc(C(=O)c4cc(F)ccc4O)cn3c(=O)c2c1C	inconclusive: 39.8 µM [quencher, side channel, single point]	–
CC(C)N(CCO)C(=O)CCc1nnc(CCCc2ccccc2)o1	–	inactive: -7.26%
Cc1c(C)c2cc(Cl)c(O)c(CN3CCN(C)CC3)c2oc1=O	inconclusive: 25.1 µM [quencher, side channel, single point]	–
COc1ccc(/C=C2\N=C(SC)N(C)C2=O)cc1	inconclusive: 17.8 µM [quencher, side channel, partial curve]	–
CN(C)c1nc(Oc2ccc(OCCOc3ccccc3)nn2)nc(N(C)C)n1	–	inactive: 0.348%
COCCCNc1oc(/C=C/c2ccccc2)nc1C#N	inconclusive: 14.1 µM [quencher, side channel, partial curve]	–
C#CC[N+]1(CC#Cc2ccccc2)CCCCC1	–	inactive: -4.38%
C=CCc1cccc2cc(C(=O)NCCOC)c(=O)oc12	inconclusive: 25.1 µM [quencher, side channel, partial curve]	–

Compound	Potency	activity change, negative = inhibition
CCOc1ccc2ccccc2c1/C=N/NC(=O)CNC(=O)c1ccccc1F	inconclusive: 17.8 µM [quencher, side channel, partial curve, poor fit]	–
COc1ccc(C2=C(C#N)C(=O)OC2)cc1	–	inactive: -1.67%
O=C(CSc1nc(O)c(C2CCCCC2)c(=O)[nH]1)NCC1CCCO1 (stereo not given)	–	inactive: -8.45%
Cc1cnc(NC(=O)CCNC(=O)c2ccc([N+](=O)[O-])cc2)s1	inconclusive: 8.91 µM [quencher, side channel, partial curve]	–
CC1CN(CCCCSc2ccccc2)CC(C)O1 (stereo not given)	–	inactive: 1.68%
CCOc1ccc(N(CC(N)=O)S(=O)(=O)c2ccc(F)cc2)cc1	inconclusive: 3.16 µM [quencher, side channel, single point]	–
Cc1cccn2c(=O)c(/C=C(\C#N)C(N)=O)c(N3CCN(c4ccccc4)CC3)nc12	inconclusive: 17.8 µM [quencher, side channel, partial curve]	–
COc1ccc(Cl)cc1NC(=O)CNC(c1ccccc1)c1ccccc1	–	inactive: -3.94%
Cc1ccc(-c2cc(C(=O)N/N=C/c3ccc([N+](=O)[O-])o3)c3ccccc3n2)o1	inconclusive: 12.6 µM [quencher, side channel, partial curve]	–
O=C(Oc1coc(CSc2ncccn2)cc1=O)c1cccc([N+](=O)[O-])c1	inconclusive: 20 µM [quencher, side channel, single point]	–
OCCN(CCO)c1ccc(C(c2ccc(Cl)cc2)c2ccc(N(CCO)CCO)cc2Cl)c(Cl)c1	inconclusive: 0.1 µM [fluorescent, side channel, full curve]	–
O=[N+]([O-])c1ccc(Cl)cc1N1CCOCC1	inconclusive: 31.6 µM [quencher, side channel, single point]	–
O=C(N=Nc1c(O)[nH]c2ccc([N+](=O)[O-])cc12)c1ccccc1Cl	–	inactive: 1%
CC(C)(C)c1c(Cl)c(O)c(-c2ccccc2)c(=O)n1-c1ccccc1	–	inactive: -21.9%
O=[N+]([O-])c1cnccc1Nc1ccc(F)cc1	inconclusive: 15.8 µM [quencher, side channel, partial curve]	–
CCOC(=O)CSc1nc(C(C)(C)C)nc2ccccc12	inconclusive: 14.1 µM [quencher, side channel, partial curve]	–
CCCCC(=O)Nc1ccccc1N1CCN(c2ccc(F)cc2)CC1	–	inactive: -1.94%
Cc1ccc(/C(O)=C2/C(=O)C(=O)N(Cc3cccnc3)C2c2ccccn2)cc1 (stereo not given)	inconclusive: 17.8 µM [quencher, side channel, single point]	–
CCCN1CCCc2cc(CN)ccc21	inconclusive: 20 µM [quencher, side channel, partial curve]	–
Cc1cccc(-c2nnc(SCCC(=O)N3CCOCC3)o2)c1	inconclusive: 7.08 µM [fluorescent, side channel, full curve]	–
